Where a name gives a salt, the structure may show the parent alone. The list shows a part of the results. Most values come without repeats; read them as rough.
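Also: primary screen of an FDA-approved drug library in HeLa reporter cells in 96-well format, CellMask signal normalized to DMSO-treated wells set as 1, under 0.5 deemed highly cytotoxic.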

For the test, the system named is HeLa VPS33A reporter cells. Briefly: relative cell viability (CellMask signal) vs DMSO (fraction of DMSO); HeLa model of a glycosaminoglycan (GAG) storage disease; KI is knock-in and KO knock-out; SDC1 is syndecan 1; higher = less cytotoxic. To be noted: 50 µM; 24 h.
On to `CC(C)[C@H]1C(=O)N[C@@H](CCCNC(=N)N)C(=O)NCC(=O)N[C@@H](CC(=O)O)C(=O)N[C@H](Cc2ccccc2)C(=O)N1C` [Cilengitide], for which the relative cell viability amounted to 0.0097. The molecule `CCOC(=O)/C=C(C)/C=C/C=C(C)/C=C/c1c(C)cc(OC)c(C)c1C` [Etretinate] came in with a relative cell viability of 0.475. The molecule `Oc1ccc(O)cc1` [Hydroquinone] returned a relative cell viability of 0.0305. As for `CC(=O)O[C@@]12CO[C@@H]1C[C@H](O)[C@@]1(C)C(=O)[C@H](O)C3=C(C)[C@@H](OC(=O)[C@H](O)[C@@H](NC(=O)OC(C)(C)C)c4ccccc4)C[C@@](O)([C@@H](OC(=O)c4ccccc4)[C@H]21)C3(C)C` [Docetaxel], the figure is 0.12; as for `Cc1c(C(=O)NN2CCCCC2)nn(-c2ccc(Cl)cc2Cl)c1-c1ccc(Cl)cc1` [Rimonabant], 0.48. Next, `COc1cc2ncnc(Nc3ccc(F)c(Cl)c3)c2cc1NC(=O)/C=C/CN1CCCCC1`: 0.0126. As for `CN1CCN(CCOc2cc(OC3CCOCC3)c3c(Nc4c(Cl)ccc5c4OCO5)ncnc3c2)CC1` [Saracatinib (AZD0530)], the figure is 0.00679. In turn, `Clc1ccc(Cn2c(CN3CCCC3)nc3ccccc32)cc1` [Clemizole hydrochloride] registered a relative cell viability of 0.0155. For `C/C(=C\c1csc(C)n1)[C@@H]1C[C@@H]2O[C@]2(C)CCC[C@H](C)[C@H](O)[C@@H](C)C(=O)C(C)(C)[C@@H](O)CC(=O)N1` [Ixabepilone], the relative cell viability turned out to be 0.0657. As for `CNCCCC12CCC(c3ccccc31)c1ccccc12` [Maprotiline HCl], the figure is 0.0208; as for `CCCCCCCCCCCCCCCC[N+](C)(C)CCN(Cc1ccc(OC)cc1)c1ncccn1` [Thonzonium Bromide], 0.0677. In turn, `CN1CCN(CCCN2c3ccccc3Sc3ccc(Cl)cc32)CC1` [Prochlorperazine] came in with a relative cell viability of 0.00459. As for `COc1cc(NS(C)(=O)=O)ccc1Nc1c2ccccc2nc2ccccc12` [Amsacrine], the figure is 0.00487; as for `O=C(NC1CCN(CCCCC2(C(=O)NCC(F)(F)F)c3ccccc3-c3ccccc32)CC1)c1ccccc1-c1ccc(C(F)(F)F)cc1` [Lomitapide], 0.00381; as for `CC1(COc2ccc3c(c2)ncn3-c2ccc3cccc(N4CCC(N)CC4)c3n2)COC1`, 0.00572.

Molecule `C[C@@H](Oc1cc(-c2cnn(C3CCNCC3)c2)cnc1N)c1c(Cl)ccc(F)c1Cl` [(R)-Crizotinib] returned a relative cell viability of 0.00374. For the molecule `Cc1ccc(C(=O)N(CCCN)[C@@H](c2nc3cc(Cl)ccc3c(=O)n2Cc2ccccc2)C(C)C)cc1`, the relative cell viability stood at 0.00382. Next, `Clc1ccc(COC(Cn2ccnc2)c2ccc(Cl)cc2Cl)c(Cl)c1` (stereo not given) [Miconazole Nitrate]: 0.00457.

Consider `C[C@H]1[C@H](OC(=O)CCC(=O)O)O[C@@H]2O[C@@]3(C)CC[C@H]4[C@H](C)CC[C@@H]1[C@@]24OO3` [Artesunate], for which the relative cell viability worked out at 0.0224.

Consider `C=C(CC)C(=O)c1ccc(OCC(=O)O)c(Cl)c1Cl` [Ethacrynic Acid], for which the relative cell viability stood at 0.01. As for `CS(=O)(=O)CCNCc1ccc(-c2ccc3ncnc(Nc4ccc(OCc5cccc(F)c5)c(Cl)c4)c3c2)o1` [Lapatinib Ditosylate*], the figure is 0.0891; as for `CNC(=O)c1cc(Oc2ccc(NC(=O)Nc3ccc(Cl)c(C(F)(F)F)c3)cc2)ccn1` [Sorafenib Tosylate], 0.0317; as for `Cc1ccc(NC(=O)c2ccc(CN3CCN(C)CC3)cc2)cc1Nc1nccc(-c2cccnc2)n1` [Imatinib Mesylate (STI571)], 0.00522. Take `Cc1cc(Nc2ncc(Cl)c(Nc3ccccc3S(=O)(=O)C(C)C)n2)c(OC(C)C)cc1C1CCNCC1`: the relative cell viability was 0.00483.

In turn, `Cc1c(-c2ccc(O)cc2)n(Cc2ccc(OCCN3CCCCCC3)cc2)c2ccc(O)cc12` [Bazedoxifene acetate] yielded a relative cell viability of 0.00262.

`N.N.O=C([O-])C[O-].[Pt+2]` [Nedaplatin] gave a relative cell viability of 0.231. As for `CN(C)C/C=C/C(=O)Nc1cc2c(Nc3ccc(F)c(Cl)c3)ncnc2cc1O[C@H]1CCOC1` [Afatinib dimaleate], the figure is 0.00353; as for `COc1ccc2cc1Oc1ccc(cc1)C[C@H]1c3c(cc4c(c3Oc3cc5c(cc3OC)CCN(C)[C@@H]5C2)OCO4)CCN1C` [Cepharanthine], 0.0048. As for `CC[C@H](NC(=O)[C@H](C)NC)C(=O)N1C[C@@H](O)C[C@H]1Cc1c(-c2[nH]c3cc(F)ccc3c2C[C@@H]2C[C@H](O)CN2C(=O)[C@H](CC)NC(=O)[C@H](C)NC)[nH]c2cc(F)ccc12`, the figure is 0.24; as for `Cc1ccc(Sc2ccccc2N2CCNCC2)c(C)c1` [Vortioxetine], 0.00238. Consider `C=C1/C(=C\C=C2/CCC[C@]3(C)[C@@H]([C@H](C)CCCC(C)C)CC[C@@H]23)C[C@@H](O)C[C@@H]1O` [Alfacalcidol], for which the relative cell viability was found to be 0.00503. As for `CN1[C@@H]2CC[C@H]1C[C@@H](OC(c1ccccc1)c1ccccc1)C2` [Benztropine mesylate], the figure is 0.0579; as for `CCCCCOc1ccc(-c2ccc(-c3ccc(C(=O)N[C@H]4C[C@@H](O)[C@@H](O)NC(=O)[C@@H]5[C@@H](O)[C@@H](C)CN5C(=O)[C@H]([C@@H](C)O)NC(=O)[C@H]([C@H](O)[C@@H](O)c5ccc(O)cc5)NC(=O)[C@@H]5C[C@@H](O)CN5C(=O)[C@H]([C@@H](C)O)NC4=O)cc3)cc2)cc1` [Anidulafungin], 0.00514; as for `c1coc(CNc2ncnc3[nH]cnc23)c1` [Kinetin], 0.213.

Molecule `OCc1cc(C(O)CNCCCCCCOCCCCc2ccccc2)ccc1O` (stereo not given) [Salmeterol xinafoate] had a relative cell viability of 0.27. Regarding `COC(=O)[C@]12CCC(C)(C)C[C@H]1[C@H]1C(=O)C=C3[C@@]4(C)C=C(C#N)C(=O)C(C)(C)[C@@H]4CC[C@@]3(C)[C@]1(C)CC2` [Bardoxolone methyl], the relative cell viability turned out to be 0.00411.

`Cn1ncc(Cl)c1-c1cc(C(=O)N[C@H](CN)Cc2cccc(F)c2)sc1Cl` [Afuresertib]: the relative cell viability amounted to 0.00421. `CCCN(CCC)C(=O)C1=Cc2ccc(-c3ccc(C(=O)N4CCCC4)cc3)cc2N=C(N)C1` [Motolimod (VTX-2337)] registered a relative cell viability of 0.00973.

Molecule `CC(C)(C)c1ccc(C(O)CCCN2CCC(C(O)(c3ccccc3)c3ccccc3)CC2)cc1` (stereo not given) [Terfenadine] registered a relative cell viability of 0.00724. `CCOC(=O)C1=C(COCCN)NC(C)=C(C(=O)OC)C1c1ccccc1Cl` (stereo not given) [Amlodipine Besylate] had a relative cell viability of 0.00413.
